B1: NB146-27 VHH-hFc (Fc fusion)
chain: EVQLVESGGGLAQPGGSLRLSCAASGFRFTSYWMHWVRQAPGKGLEWVSAINTGGGSTYYADSVKGRFTISRDNAKNTLYLQMNSLKPEDTALYYCARDLSGSDYVVGITSWGQGTQVTVSS[human IgG1 Fc with changes not written out]
B2: NB146-28 VHH-hFc (Fc fusion)
chain: EVQLVESGGTRVQPGGSLKLSCATSGIMFSYNTMAWYRQAPGKQRELVATITRDGSTNYADSMKGRFTISRDNAKNTLYLQMNGLKPEDTAVYYCNLGTTDWRRYNYWGQGTQVTVSS[human IgG1 Fc with changes not written out]
B3: NB146-54 VHH-hFc (Fc fusion)
chain: QLQLVESGGGLVQAGGSLRLSCVASGTFFSTKTMAWYRQAPGNQREWIATISPDGTTRHADSMKGRSTISRDNAKKVVYLQLDSLKPEDTAAYYCRDISRDLWGQGTQVTVSS[human IgG1 Fc with changes not written out]
B4: NB146-125 VHH-hFc (Fc fusion)
chain: EVQLVESGGGLVQAGGSLTLSCVASETIFRRNAMAWYRQAPGQQRELVASIRRGAFTYYPNSMKGRFTISRDDAKNTVFLQMNSLKPEDTGVYYCRSLNDDYWGQGTQVTVSS[human IgG1 Fc with changes not written out]
B5: NB147-14 VHH-hFc (Fc fusion)
chain: QVQLVESGGGLVRPGGSLRLSCVLSGRTFSDYAMRWFRQAPGKEREFVASINWSGTHTDYADSVKGRFTISRDNAKKTVYLQMHSLTPTDTAVYYCTFGWGPQLPGTDYWGQGTQVTVAP[human IgG1 Fc with changes not written out]
B6: NB147-83 VHH-hFc (Fc fusion)
chain: QLQLVESGGGLVQPGGSLTLSCAASGFPASHYYAIRWFRQAPGKERDGIACISSYDGSTNYADSVKGRFTISNDGAKKTVYLHMSDVQPEDAAVYFCAATIHFSAYEECQAYEYHYWGQGTQVTVSS[human IgG1 Fc with changes not written out]
B7: NB146-125 VHH-hFc (Fc fusion)
chain: EVQLVESGGGLVQAGGSLTLSCVASETIFRRNAMAWYRQAPGQQRELVASIRRGAFTYYPNSMKGRFTISRDDAKNTVFLQMNSLKPEDTGVYYCRSLNDDYWGQGTQVTVSS[human IgG1 Fc with changes not written out]
notes: the junction is not described
B8: NB147-14 VHH-hFc (Fc fusion)
chain: QVQLVESGGGLVRPGGSLRLSCVLSGRTFSDYAMRWFRQAPGKEREFVASINWSGTHTDYADSVKGRFTISRDNAKKTVYLQMHSLTPTDTAVYYCTFGWGPQLPGTDYWGQGTQVTVAP[human IgG1 Fc with changes not written out]
notes: the junction is not described
B9: NB147-83 VHH-hFc (Fc fusion)
chain: QLQLVESGGGLVQPGGSLTLSCAASGFPASHYYAIRWFRQAPGKERDGIACISSYDGSTNYADSVKGRFTISNDGAKKTVYLHMSDVQPEDAAVYFCAATIHFSAYEECQAYEYHYWGQGTQVTVSS[human IgG1 Fc with changes not written out]
notes: the junction is not described
B10: NB147-102 VHH-hFc (Fc fusion)
chain: QLQLVESGGGLVQPGGSLRLSCSASGRTFNNYVMAWFRQAAGKEREFVANINTSGGRTTYTDSVKDRFTISRDNAKNTMYIQMNNLKAEDTAVYYCAARILYNSDNSDYRKYYYWGQGTQVTVSS[human IgG1 Fc with changes not written out]
notes: the junction is not described

What follows are binders tested against T1, human HER2-His protein (Acro, Cat. No. HE2-H5225) (human, UniProt P04626 in part) (assay: ELISA, 0.1 nM).
T1 construct: also called human HER2 protein; recombinant human HER2-His

In order of rising OD450:
1. B3  0.45
2. B6  0.48
3. B4  0.58
4. B1  0.59
5. B2  0.65
6. B5  1.05

These binders were tested against T1, human HER2-His protein (Acro, Cat. No. …) (assay: ELISA, 0.001 nM).

In order of rising OD450:
1. B1  0.05
2. B2  0.05
3. B3  0.05
4. B5  0.06
5. B6  0.06
6. B4  0.11

Each binder was assayed against T1, human HER2-His protein (Acro, Cat. No. …) (assay: ELISA, 0.01 nM).

In order of falling OD450:
1. B5  0.14
2. B1  0.11
3. B4  0.11
4. B2  0.1
5. B6  0.1
6. B3  0.09

The binders below were run against T2, monkey HER2 on HEK293T-monkey-HER2 cells (monkey) (assay: FACS on HEK293T-monkey-HER2 cells).
T2 construct: whole, on cells

In order of rising EC50:
1. B10  1.2 nM
2. B7  1.4 nM
3. B8  1.43 nM
4. B9  4.82 nM

In order of rising “Max MFI” value:
1. B9  20800 MFI
2. B7  21300 MFI
3. B8  21300 MFI
4. B10  21400 MFI

These binders were tested against T3, human HER2 protein on cells (SK-BR-3 endogenous; CHO-K1-human HER2 recombinant) (human, UniProt P04626) (assay: FACS on SK-BR-3 cells).
T3 construct: also called human HER2-CHO-K1 cells

In order of rising EC50:
1. B2  1.54 nM
2. B4  1.97 nM
3. B3  2.17 nM
4. B5  2.25 nM
5. B1  4.12 nM
6. B6  12.1 nM

In order of rising “Max MFI” value:
1. B1  6310
2. B6  6780
3. B2  6940
4. B4  7290
5. B5  7290
6. B3  8260

What follows are binders tested against T4, murine HER2-His protein (murine, UniProt P70424 23-653) (assay: ELISA, coated murine HER2-His).
T4 construct: Bought protein; also called murine HER2 protein; not shown: His tag
T4 sequence (P70424 23-653): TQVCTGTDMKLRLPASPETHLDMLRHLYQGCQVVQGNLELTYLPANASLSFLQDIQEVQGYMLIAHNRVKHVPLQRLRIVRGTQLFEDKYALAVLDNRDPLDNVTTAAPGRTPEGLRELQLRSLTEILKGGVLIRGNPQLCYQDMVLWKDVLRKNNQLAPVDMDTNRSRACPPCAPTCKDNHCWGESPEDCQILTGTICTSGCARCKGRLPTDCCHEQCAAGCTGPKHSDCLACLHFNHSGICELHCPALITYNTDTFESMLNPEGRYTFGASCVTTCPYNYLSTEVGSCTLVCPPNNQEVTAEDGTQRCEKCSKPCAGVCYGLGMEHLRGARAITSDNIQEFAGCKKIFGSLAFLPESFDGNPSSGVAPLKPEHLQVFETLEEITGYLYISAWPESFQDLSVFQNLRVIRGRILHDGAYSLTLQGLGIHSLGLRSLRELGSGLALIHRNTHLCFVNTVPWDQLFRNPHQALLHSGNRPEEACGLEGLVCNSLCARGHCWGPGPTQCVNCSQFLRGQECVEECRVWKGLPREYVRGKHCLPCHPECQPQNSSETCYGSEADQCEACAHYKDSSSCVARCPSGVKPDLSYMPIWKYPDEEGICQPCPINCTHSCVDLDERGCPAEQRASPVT

In order of falling “OD450 nm at 0.0001 nM antibody” value:
1. B7  0.05 OD450 nm
2. B8  0.05 OD450 nm
3. B9  0.05 OD450 nm
4. B10  0.05 OD450 nm

In order of falling “OD450 nm at 0.001 nM antibody” value:
1. B9  0.06 OD450 nm
2. B10  0.06 OD450 nm
3. B7  0.05 OD450 nm
4. B8  0.05 OD450 nm

In order of rising “OD450 nm at 0.01 nM antibody” value:
1. B7  0.05 OD450 nm
2. B8  0.05 OD450 nm
3. B9  0.05 OD450 nm
4. B10  0.05 OD450 nm

In order of rising “OD450 nm at 0.1 nM antibody” value:
1. B7  0.05 OD450 nm
2. B8  0.05 OD450 nm
3. B9  0.05 OD450 nm
4. B10  0.06 OD450 nm

In order of falling “OD450 nm at 1 nM antibody” value:
1. B8  0.09 OD450 nm
2. B7  0.06 OD450 nm
3. B9  0.05 OD450 nm
4. B10  0.05 OD450 nm

In order of rising “OD450 nm at 10 nM antibody” value:
1. B8  0.05 OD450 nm
2. B7  0.06 OD450 nm
3. B9  0.06 OD450 nm
4. B10  0.07 OD450 nm

In order of falling “OD450 nm at 100 nM antibody” value:
1. B10  0.15 OD450 nm
2. B8  0.07 OD450 nm
3. B9  0.07 OD450 nm
4. B7  0.06 OD450 nm

What follows are binders tested against T5, recombinant human HER2-His protein (human, UniProt P04626 in part, limits assumed) (assay: SPR, antibody captured on Protein A chip, human HER2-His analyte, 1:1 model).
T5 construct: also called human HER2 protein; not shown: His tag

In order of rising Kd:
1. B7  11.6 nM
2. B10  16.2 nM
3. B8  29.7 nM
4. B9  69 nM

In order of falling koff:
1. B8  0.0199 s⁻¹
2. B10  0.00361 s⁻¹
3. B9  0.00208 s⁻¹
4. B7  0.000789 s⁻¹

In order of rising kon:
1. B9  30100 M⁻¹ s⁻¹
2. B10  223000 M⁻¹ s⁻¹
3. B8  671000 M⁻¹ s⁻¹

These binders were tested against T1, human HER2-His protein (Acro, Cat. No. …) (assay: ELISA, 10 nM).

In order of falling OD450:
1. B5  3.34
2. B6  3.33
3. B4  2.56
4. B2  2.3
5. B1  2.27
6. B3  1.87

Each binder was assayed against T6, monkey HER2-His protein (monkey) (assay: ELISA, coated monkey HER2-His).
T6 construct: Bought protein; also called monkey HER2 protein

In order of rising “OD450 nm at 0.0001 nM antibody” value:
1. B8  0.05 OD450 nm
2. B7  0.06 OD450 nm
3. B9  0.06 OD450 nm
4. B10  0.06 OD450 nm

In order of rising “OD450 nm at 0.001 nM antibody” value:
1. B9  0.06 OD450 nm
2. B8  0.07 OD450 nm
3. B10  0.07 OD450 nm
4. B7  0.08 OD450 nm

In order of falling “OD450 nm at 0.01 nM antibody” value:
1. B10  0.18 OD450 nm
2. B8  0.15 OD450 nm
3. B9  0.1 OD450 nm
4. B7  0.08 OD450 nm

In order of falling “OD450 nm at 0.1 nM antibody” value:
1. B10  1.13 OD450 nm
2. B8  1 OD450 nm
3. B9  0.43 OD450 nm
4. B7  0.3 OD450 nm

In order of falling “OD450 nm at 1 nM antibody” value:
1. B8  3.1 OD450 nm
2. B10  2.83 OD450 nm
3. B9  2.52 OD450 nm
4. B7  0.99 OD450 nm

In order of rising “OD450 nm at 10 nM antibody” value:
1. B7  1.35 OD450 nm
2. B10  2.66 OD450 nm
3. B8  3.25 OD450 nm
4. B9  3.27 OD450 nm

In order of falling “OD450 nm at 100 nM antibody” value:
1. B9  3.32 OD450 nm
2. B8  3.31 OD450 nm
3. B10  3.01 OD450 nm
4. B7  1.56 OD450 nm

What follows are binders tested against T6, monkey HER2-His protein (assay: SPR, antibody captured on Protein A chip, monkey HER2-His analyte, 1:1 model).

In order of rising Kd:
1. B7  28.4 nM
2. B8  37.8 nM
3. B10  55.4 nM
4. B9  1710 nM

In order of falling koff:
1. B10  0.0192 s⁻¹
2. B8  0.0164 s⁻¹
3. B9  0.00218 s⁻¹
4. B7  0.00211 s⁻¹

In order of rising kon:
1. B9  1270 M⁻¹ s⁻¹
2. B7  74100 M⁻¹ s⁻¹
3. B10  346000 M⁻¹ s⁻¹
4. B8  434000 M⁻¹ s⁻¹

Each binder was assayed against T1, human HER2-His protein (Acro, Cat. No. …) (assay: ELISA, 100 nM).

In order of rising OD450:
1. B3  1.97
2. B2  2.56
3. B1  2.85
4. B4  3.14
5. B5  3.4
6. B6  3.43

The binders below were run against T1, human HER2-His protein (Acro, Cat. No. …) (assay: ELISA, 1 nM).

In order of falling OD450:
1. B5  3
2. B6  2.61
3. B4  2.17
4. B2  2.03
5. B1  1.95
6. B3  1.82

What follows are binders tested against T3, human HER2 protein on cells (SK-BR-3 …) (assay: FACS on CHO-K1-human HER2 cells).

In order of rising EC50:
1. B2  0.46 nM
2. B5  0.59 nM
3. B4  0.8 nM
4. B3  0.9 nM
5. B1  3.81 nM
6. B6  5.57 nM

In order of rising “Max MFI” value:
1. B2  1120
2. B1  1130
3. B6  1140
4. B5  1300
5. B4  1480
6. B3  1550

Each binder was assayed against T1, human HER2-His protein (Acro, Cat. No. …) (assay: ELISA, 0.0001 nM).

In order of rising OD450:
1. B1  0.05
2. B2  0.05
3. B3  0.05
4. B4  0.06
5. B5  0.06
6. B6  0.07
